The source gives no read counts; variants with many changes may rest on few reads.
B1: LINE1-mini (parent)
chain: GGCAGAGCUCAACACAGCGUGGCAAAGUGGCUGUGGCUAGACUGCC

Variants of: B1
Assay: self-cleavage, relative activity (ratio to wild type); higher = more cleavage; in vitro, sequencing; the parent is a self-cleaving ribozyme

**Q.** For GGCUGAGCUCUACACAGCGUGGCAAAGUGGCUGUGGCUAGACUGAC [A4U A11U C45A], which self-cleavage is on record?
**A.** Its self-cleavage is 0.02.

**Q.** With GGCAGAGCUCAACACCGCGUGGCAAAUUGGCUGUGGCUAGACUGUC [A16C G27U C45U] as the variant, how does the self-cleavage read?
**A.** The self-cleavage was 0.06.

**Q.** Which self-cleavage does the source give for GGCAGAUCUUAACACAGCGUGGCAAAGUGGCUGUGGCUAGAGUGCC [G7U C10U C42G] here?
**A.** Its self-cleavage is 0.03.

**Q.** With AGCAGAGCGCACCUAAGCGAGGCAAAGCGGCUGUGGCUAGACUGCC [G1A U9G A12C A14U C15A U20A U28C] as the variant, how does the self-cleavage read?
**A.** The self-cleavage was 0.

**Q.** With GGCAGCGCUCAACACAGCGCGGCAAAGCGGCUGUGGCUAGACUGUC [A6C U20C U28C C45U] as the variant, how does the self-cleavage read?
**A.** The self-cleavage was 0.59.

**Q.** Which self-cleavage does the source give for GGCAGAGCUCAACACACUGUGGCAAAGUGGCUGUGGCUAGCCUGCC [G17C C18U A41C] here?
**A.** The self-cleavage was 0.03.

**Q.** With GGCAGAGCUCCACACAGCGUGGCCAUGUGGCUGUGGCUAGACUGCC [A11C A24C A26U] as the variant, how does the self-cleavage read?
**A.** Its self-cleavage is 0.01.

**Q.** With GGCAGAGCUCAACAGAGCGUGCCAAAUUGGCUGAGGCUAGACCGCC [C15G G22C G27U U34A U43C] as the variant, how does the self-cleavage read?
**A.** The self-cleavage was 0.

**Q.** With GGCAGAGCCCAACACAGCGUGGCAAAGAGGCUGUGGCUAGACUGGC [U9C U28A C45G] as the variant, how does the self-cleavage read?
**A.** Its self-cleavage is 0.02.

**Q.** For GUCAGAGCUUAACACAGCGUGGCAACAUGGCUGUGGCUAGACUGCC [G2U C10U A26C G27A], which self-cleavage is on record?
**A.** The self-cleavage was 0.02.

**Q.** With GGCACAGCUCAACACAGCGUGGCAAAGUGGUUGUGGCAAGACUGCC [G5C C31U U38A] as the variant, how does the self-cleavage read?
**A.** The self-cleavage was 0.1.

**Q.** For GGCAGUGCUAAACAAAGCGUGGCAAAGUGGCUGUGGCUAGACUGCC [A6U C10A C15A], which self-cleavage is on record?
**A.** Its self-cleavage is 0.01.

**Q.** Which self-cleavage does the source give for GGCAGAGCGCAAGCCAGCGUGGUAAAGUGGCUGUGGCUAGACUGCC [U9G C13G A14C C23U] here?
**A.** Its self-cleavage is 0.1.

**Q.** With GGCAGAGCUCAACACAGCGUGGCAAAGUGGCAGUUCCUAGACUGCC [U32A G35U G36C] as the variant, how does the self-cleavage read?
**A.** The self-cleavage was 0.04.

**Q.** With GGCAGAGCUCAACACAGCUUGGCAAAGUGGCUGUGGAUAGCCUGCC [G19U C37A A41C] as the variant, how does the self-cleavage read?
**A.** Its self-cleavage is 0.

**Q.** For GGCAGAGCUCAACAUGGCUUGGCAAAGUGGUUGUGGCGAGACUGCC [C15U A16G G19U C31U U38G], which self-cleavage is on record?
**A.** The self-cleavage was 0.02.

**Q.** Which self-cleavage does the source give for UGCAGAGCUCAAUACAGCGUCGCAAAGUAGCUGUGGCUAGACUGCU [G1U C13U G21C G29A C46U] here?
**A.** Its self-cleavage is 0.13.

**Q.** For GGCAGGGCCCAACACAGCGUGGUAAAGGGGCUGUGUCUAGACUGCC [A6G U9C C23U U28G G36U], which self-cleavage is on record?
**A.** The self-cleavage was 0.04.

**Q.** Which self-cleavage does the source give for UGCAAACCUCAACACAACGUGGCAAAGUGGACGUGGCUAGUCUGCC [G1U G5A G7C G17A C31A U32C A41U] here?
**A.** Its self-cleavage is 0.06.

**Q.** Which self-cleavage does the source give for GGCCGAGGUCAACCCAGCGUGGCAAAGUGGCUGUGGCUAGACUACC [A4C C8G A14C G44A] here?
**A.** Its self-cleavage is 0.04.

**Q.** For CGCAGAGCUCCACACAGCGUGGCAGAGUGGCUGUGGCUAGACAGCC [G1C A11C A25G U43A], which self-cleavage is on record?
**A.** The self-cleavage was 0.

**Q.** Which self-cleavage does the source give for GGCAAAGCUCAACACUGCGUGGCAAAGUGGCUGUGGCUAGACUACC [G5A A16U G44A] here?
**A.** The self-cleavage was 0.07.

**Q.** With GGCAGAGCUCAAUAUAGCGUGGCAAAGUUGCUGUGGCUCGACUGCC [C13U C15U G29U A39C] as the variant, how does the self-cleavage read?
**A.** Its self-cleavage is 0.25.

**Q.** Which self-cleavage does the source give for GGCUGAGCUCAAUACAGCGUGGCAAAGUGGCUGUGGCUAGACUGGC [A4U C13U C45G] here?
**A.** Its self-cleavage is 0.15.

**Q.** For GGCAGAGCUAAACACAGCGUGGCCAAGUGUCAGUGGCUAGACUGCC [C10A A24C G30U U32A], which self-cleavage is on record?
**A.** Its self-cleavage is 0.

**Q.** For AGCAGAGCUCAACACAGCGUGGCAAAGUGGGUGUGGGUAGACUGCC [G1A C31G C37G], which self-cleavage is on record?
**A.** The self-cleavage was 0.05.

**Q.** For GGCAGAGCUCGACAAAGCGUGGCACAGUGGCUGUGGCUAAACUGCC [A11G C15A A25C G40A], which self-cleavage is on record?
**A.** The self-cleavage was 0.03.

**Q.** Which self-cleavage does the source give for GGCACAGCUCAAUACAGCGUGGCAAAGUGGCUGAGGCUAGACUGCC [G5C C13U U34A] here?
**A.** Its self-cleavage is 0.11.

**Q.** With GGCGGAACGCAACACAUCGUGGCAAACCGGAUGUGGCUAGACUGCC [A4G G7A U9G G17U G27C U28C C31A] as the variant, how does the self-cleavage read?
**A.** Its self-cleavage is 0.06.

**Q.** For GGCAGACCUCAACACAGCGUCGCAAAGUGGUUGUCGCUAGACCGCC [G7C G21C C31U G35C U43C], which self-cleavage is on record?
**A.** Its self-cleavage is 0.02.

**Q.** Which self-cleavage does the source give for GGCAGAACUCAACACAGCGUGGCAAUGUGGCUGUGACUAGACUGCC [G7A A26U G36A] here?
**A.** Its self-cleavage is 1.08.

**Q.** Which self-cleavage does the source give for CGCAGAGCUCAACACAGCGUGGCAAAGUGGCUGAGGCUAUACUCCC [G1C U34A G40U G44C] here?
**A.** The self-cleavage was 0.01.

**Q.** For GGCAGACCUCAACACAGUGUGCCAAAGUGGCUGUGGCUAGACUGCA [G7C C18U G22C C46A], which self-cleavage is on record?
**A.** Its self-cleavage is 0.03.

**Q.** With GGCAGAGCUCAACAGAGCGUGGCAAAGUGGCGGUGGCUAGAUUACC [C15G U32G C42U G44A] as the variant, how does the self-cleavage read?
**A.** Its self-cleavage is 0.01.

**Q.** For GGCAGAGCUCAACACAGCCUGGCAAUGUAGCUCUGGCUAUACUGCC [G19C A26U G29A G33C G40U], which self-cleavage is on record?
**A.** The self-cleavage was 0.19.

**Q.** Which self-cleavage does the source give for GGCAGAGCUCAACACAGCGUGGCAAAGUGGAUGUUGUCAGACUGCC [C31A G35U C37U U38C] here?
**A.** The self-cleavage was 0.02.

**Q.** With GGCAGAGUUCAACAGAGCGUGGCGAAGUGGCUGUGGCUAGACUGCC [C8U C15G A24G] as the variant, how does the self-cleavage read?
**A.** Its self-cleavage is 0.02.

**Q.** With GGCAGAGCUCAACACAGCGUGGCACAGUGGCUGUGACUAGACUACC [A25C G36A G44A] as the variant, how does the self-cleavage read?
**A.** The self-cleavage was 0.04.

**Q.** Which self-cleavage does the source give for GGCAGAGCUCACCACCGUGUGGCAAAGUGGGUGUGGCUAGACUGCC [A12C A16C C18U C31G] here?
**A.** The self-cleavage was 0.01.

**Q.** Which self-cleavage does the source give for GGCAGAGAUAAACACAGCUUCGCAAAGUGGCUGUUGCUAGAAUGCC [C8A C10A G19U G21C G35U C42A] here?
**A.** Its self-cleavage is 0.06.

**Q.** Which self-cleavage does the source give for UGCAGAGCUCAACACAGCGUGGCAAAGCGGCUGUGUCUAGACUGCC [G1U U28C G36U] here?
**A.** Its self-cleavage is 0.04.

**Q.** For GGCAGAGCUCAACACAGCGUGUCAAAGUGGCAGUGGCUAGACAGCC [G22U U32A U43A], which self-cleavage is on record?
**A.** Its self-cleavage is 0.02.

**Q.** Which self-cleavage does the source give for GGCAAAGCGCAAAACAGCGUGGCAAAGUGGCUGUGGCUAGACUGCC [G5A U9G C13A] here?
**A.** The self-cleavage was 0.93.

**Q.** Which self-cleavage does the source give for GGCAGAGCUCAACACAGCGUGGUAAAGUGACUGUGGCUAUAAUGCC [C23U G30A G40U C42A] here?
**A.** The self-cleavage was 0.05.

**Q.** For GCCAGAGCUCAACACAGCGUGGCAAACUGCCUGUGGUUAGACUGCU [G2C G27C G30C C37U C46U], which self-cleavage is on record?
**A.** Its self-cleavage is 0.02.

**Q.** With GGCAGAGCUCAACACAGCGUGGAAAAGUGGCUGUGGCGAGACAGCC [C23A U38G U43A] as the variant, how does the self-cleavage read?
**A.** Its self-cleavage is 0.01.

**Q.** With GGCAGAGCUAAACACAGCGUGGCAAAGUUGCUGUGGCUAUACUGCC [C10A G29U G40U] as the variant, how does the self-cleavage read?
**A.** The self-cleavage was 0.01.

**Q.** With GGCAGAGCUCAUCACAGCGUGGCAAAGUGGCUGUGGUUAGACUCCC [A12U C37U G44C] as the variant, how does the self-cleavage read?
**A.** Its self-cleavage is 0.02.

**Q.** For GGCAUAGCUCAACACAGCGUGGCAAUGAGGCUGUGGCUAGACUGCU [G5U A26U U28A C46U], which self-cleavage is on record?
**A.** Its self-cleavage is 0.

**Q.** With GGCAGUGCUCGAUACAGCGUGGCAAAGAGGCUGUGGCUAAACUGCC [A6U A11G C13U U28A G40A] as the variant, how does the self-cleavage read?
**A.** The self-cleavage was 0.02.

**Q.** With GGCAGAGCUCAACAGAGCGUGGCAAAGUGGCUGUAGCUACUCUGCU [C15G G35A G40C A41U C46U] as the variant, how does the self-cleavage read?
**A.** Its self-cleavage is 0.04.

**Q.** Which self-cleavage does the source give for GGCAGAAUUCCACACAGCGUGGCAAAGUGGCUGUCGCUAGACUGCC [G7A C8U A11C G35C] here?
**A.** Its self-cleavage is 0.03.

**Q.** With GGCCGAGCUCAACACACCGUGGCGAAGUGGCUCUGGCUAGACUGCC [A4C G17C A24G G33C] as the variant, how does the self-cleavage read?
**A.** Its self-cleavage is 0.1.

**Q.** With GGCAGACCUCAACACAGCGUGGCAAACUCGCUGUGGCUAGACUGCC [G7C G27C G29C] as the variant, how does the self-cleavage read?
**A.** Its self-cleavage is 0.01.

**Q.** With GGCAGGGCCCAACACAGAGUGGCAAAGUGGCUGUGGUUAGACUGCC [A6G U9C C18A C37U] as the variant, how does the self-cleavage read?
**A.** The self-cleavage was 0.01.

**Q.** Which self-cleavage does the source give for GGCAGAGCUCAAGACAGCGUGGCAAACUGGCUGUUGCUAGGCUGCC [C13G G27C G35U A41G] here?
**A.** Its self-cleavage is 0.06.
